The labels stand for the following.
T1: UNK ZnF1-3 (human, UniProt Q9C0B0 31-174)
T1 sequence: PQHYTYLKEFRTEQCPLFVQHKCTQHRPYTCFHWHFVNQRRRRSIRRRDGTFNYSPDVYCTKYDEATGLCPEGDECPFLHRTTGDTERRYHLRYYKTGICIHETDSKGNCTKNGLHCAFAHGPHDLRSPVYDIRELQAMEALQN

B1: chr11:18503389:18503390:-_ENSG00000074319_ENST00000251968|hu_hu|hu_hu_hu_mus_True|18_88 (ssRNA)
RNA: GGGAGUUCUACAGUCCGACGAUCAUUUUCCAUUUUCUCCAGAGCAGAACUGAGUUCUUCAUCCUUCUUUUUCAAAAGUUCUAUGUUUUUAUCAACUUCAGCUACUUCUUGAUCUAAACGGGUAACCAUCUCUUCCAGUUUCUGCAACAGAGGAUUGAGCAUCA
B2: chr7:6441565:6441566:+_ENSG00000136238_ENST00000348035|hu_mus|FALSE|FALSE (ssRNA)
RNA: GGGAGUUCUACAGUCCGACGAUCGGUGAUGGGAGUCAGCUUCUUCUCCUUCAGCUUCUCAAUGGUGUCCUUAUCAUCCCUAAGAUCAAGCUUCGUCCCCACGAGGAUGAUAGGAGUAUUGGGACAGUGGUGUCGCACUUCAGGCAACAGAGGAUUGAGCAUCA
B3: chr18:25532265:25532266:-_ENSG00000170558_ENST00000399380|hu_hu|motif|central (ssRNA)
RNA: GGGAGUUCUACAGUCCGACGAUCGGAAUUAAGGGAGCUCAAGGACCCAGCAGUGGAGCCACUGCCUUCAUAGUCAAACACGGACAGGGAGUCAUAUGGUGGAGCUGUGGGGUCAUUGUCAGCCGCUUUAAGGCCCUCAUUAAUCAACAGAGGAUUGAGCAUCA
B4: chr3:33945423:33945424:+_ENSMUSG00000027680_ENSMUST00000167354|mus_hu|FALSE|FALSE (ssRNA)
RNA: GGGAGUUCUACAGUCCGACGAUCGGUAUUUUUUUUGACAGUUUUAUUUUGAUUGACAGGCCGAAGUCGUUCAAAUGUGACUAUUUCAUUGUAAGUAGCGUCACAAGCAGCAUAUUCAAUGACAUAAAAUUCUCCUUUCAUCAUCAACAGAGGAUUGAGCAUCA
B5: 14949008_14949349_647_CDS_ENSMUSG00000021737_ENSMUST00000022256|mouse|control|control (ssRNA)
RNA: GGGAGUUCUACAGUCCGACGAUCGAGAAAGAGCUCUGCUGCCUGUUUGAAGUCACGGAUAGCCACACAAUAUAAGCCCUGGUACACUUUCAGCCUGUUUCGCCUGUCCCAGUCUCCGCCUUCCUCUAUCAGGCUUUUGGCCUUCAACAGAGGAUUGAGCAUCA
B6: chr8:95530139:95530140:-_ENSG00000164944_ENST00000437199|hu_hu|motif|central (ssRNA)
RNA: GGGAGUUCUACAGUCCGACGAUCAACAUCACUGGAAGACUGAACCACCACCAAAAUAAGUAUGCAUGCGUAAUUAUAAGCGGCUGACUUCUUAGAUUUGGAAUCACCCAAGGCUUCUUUGGAAUAGUACUCCAUUAGAGUAAUCAACAGAGGAUUGAGCAUCA
B7: 171897380_171897500_268_CDS_ENSMUSG00000026675_ENSMUST00000027989|mouse|control|control (ssRNA)
RNA: GGGAGUUCUACAGUCCGACGAUCACCCCGGACCACCGACUGCAGGCUGCUGACAUCCAUCUGCACGAUGCUGACUUCGGCGGAGGGGUGAGAGGCCAGCAGGGUAUCUCGAACAGCUCUUGCUUUGCUCAGGUUCCUACACGCCAACAGAGGAUUGAGCAUCA
B8: chr19:59067291:59067292:-_ENSG00000130725_ENST00000253023|hu_hu|FALSE|FALSE (ssRNA)
RNA: GGGAGUUCUACAGUCCGACGAUCUGGGUCGGGGGAGGCAGCGCCGACCUUAAUCACAUGGUGUUAAAAAAAAAAAAAUAACUAGGGGCACGUGGCAGGAAGGGGAGGCAAGGCCAAGGCAGGGGAUUCCCCCACCGGCCGCCCCAACAGAGGAUUGAGCAUCA
B9: 71574628_71575803_532_CDS_ENSMUSG00000053470_ENSMUST00000065509|mouse|control|control (ssRNA)
RNA: GGGAGUUCUACAGUCCGACGAUCUUGAUCUCCAAGAAACCGAACAGAAGUUAUGGCUCCCAAGCCAGCUUUGUCUAGAAGAGAUUUGUACAUUAUUGCAGGCCACUGAAUAACUUGCUCAGGAACUUCAGGUGAUUUUCGUUCCAACAGAGGAUUGAGCAUCA
B10: chr4:144391305:144391306:+_ENSG00000109458_ENST00000262995|hu_mus|FALSE|FALSE (ssRNA)
RNA: GGGAGUUCUACAGUCCGACGAUCCGGUGGAGAGAGAGAGAGAGCGAGCGAGCUAAGAGUAGUAAUCUUGAAUUCCUGCCUAAUUCAUUCAAAAUCACACUAUGCUGCUGACAGUGAACGCCAACUGUUUCAUUAAUUCUAAACCAACAGAGGAUUGAGCAUCA
B11: 29611512_29611714_1436_CDS_ENSMUSG00000038084_ENSMUST00000160597|mouse|control|control (ssRNA)
RNA: GGGAGUUCUACAGUCCGACGAUCGUUAGGAUUCUGCAUGUAAGCUUUGCUGAUACUGAAAAUAGUUUCCUUUGUGUCGGGAGCCAUGCCUGAUGUCACGGUGUUGAUGACACCAGGCAAGUCCACGAGCACCAUCCUCUGCAGCAACAGAGGAUUGAGCAUCA
B12: chr1:54531653:54531654:-_ENSMUSG00000073678_ENSMUST00000097739|mus_mus|FALSE|FALSE (ssRNA)
RNA: GGGAGUUCUACAGUCCGACGAUCACACAGAAGACAAACUCCUUCCAGAGGACAGAGCGUCCUGAAGCCAGCUCUCAUAAACUACCCUCCUGCUAAUUUAUCCACAGUCCCCAACAGUUACUUAGAUAAUCAUUACUCGAUCAACAACAGAGGAUUGAGCAUCA
B13: 33361647_33361767_243_3pUTR_ENSMUSG00000018965_ENSMUST00000019109|mouse|control|control (ssRNA)
RNA: GGGAGUUCUACAGUCCGACGAUCCGCCUGCUCCGCCAGUCGCGCCCGCUGCAGCAGCUGCUCUCGAUCCCCCAUGUCGCUCGCGACUCGGCCUCGCCUCGCACGCCCACACCGCCUGCUCACUCGCUCGCUCGCUCGCCCGCCCAACAGAGGAUUGAGCAUCA
B14: chr7:65705475:65705476:+_ENSG00000169902_ENST00000304842|hu_hu|hu_hu_hu_mus_True|38_108 (ssRNA)
RNA: GGGAGUUCUACAGUCCGACGAUCUCUAUCCGGUGAUGGCACUCCAUGGCAUGCUGGCCCAGGUAAAACACGGUCACAGAACUAAUCACCAGACACGCCAAUAGUAAGUUCUGCUUCAGCUUCCCAACCAUCUUGAUGUGGUUACAACAGAGGAUUGAGCAUCA
B15: chr17:49239293:49239294:+_ENSG00000239672_ENST00000393196|hu_mus|motif|central (ssRNA)
RNA: GGGAGUUCUACAGUCCGACGAUCCACAGGGAGUCACAGCUCCCAAAGGUUCCUUCCAGGUCAAAGAAGUUCCAGAAAUAUCGGGGGUUGCUGGUCCCCUGCCUGUGAGAACAAGAGUAAGCAGGUAGAAAACCAGCACCGUCCCAACAGAGGAUUGAGCAUCA
B16: chr10:57206289:57206290:+_ENSMUSG00000019878_ENSMUST00000079833|mus_mus|motif|central (ssRNA)
RNA: GGGAGUUCUACAGUCCGACGAUCGCCGGCACGUUGGAACUCUGCUUCAUUGUUAGCCCGGUGCAGGGAUUCCAAAUUCGGCGGCCGAACGCGGAGGUCGCAGCGGCGGCGGCGGCGGCGGCGGCGGCAGCAGCGGCGGUGGCACAACAGAGGAUUGAGCAUCA
B17: 63476008_63481888_13387_CDS_ENSMUSG00000030451_ENSMUST00000076226|mouse|control|control (ssRNA)
RNA: GGGAGUUCUACAGUCCGACGAUCCUGGAUGCGGUUCAGCUCCACCACAGGCCCAUGUUGGCGAUCUCGCACCAUAGUUGCUUGUACUACCUUCCUGAAAGCUGCUUCCUUGCCCUGAGAUAUUAAGAUCCCACGGAGUGUGUCCAACAGAGGAUUGAGCAUCA
B18: chr11:98018192:98018193:-_ENSMUSG00000018160_ENSMUST00000107545|mus_mus|FALSE|FALSE (ssRNA)
RNA: GGGAGUUCUACAGUCCGACGAUCUCCUGAACUGCCUGGGGAUUUGGACCCACCCGUGCUGGUAGGUGGGGUGAAAGGUCUAUUAGAAGAACUGUGAGAUGGGGACUUCCCCUCAGUGUCUGCCUUCUUCCGCUUUGGAGGCUUCAACAGAGGAUUGAGCAUCA
B19: chr10:105151994:105151995:-_ENSG00000173915_ENST00000309579|hu_hu|FALSE|FALSE (ssRNA)
RNA: GGGAGUUCUACAGUCCGACGAUCUUUAAAAUCCAUUUAUGUUGCUUUCACAGCUGGAGUUUUUUUGGACCUUAACUUGAAAUAUAAGACAAUCAAUGCAAUGCUUCCAUAUGUGGCCAGUACACAGUUCAUUCUACCUGUGAGCAACAGAGGAUUGAGCAUCA
B20: chr1:33860009:33860010:-_ENSMUSG00000042197_ENSMUST00000044455|mus_mus|FALSE|FALSE (ssRNA)
RNA: GGGAGUUCUACAGUCCGACGAUCGCUGGAGAUAUCCCAAGGAACUGACGAGCUCUCACUUGGCCUAGAAUGAUGAAAUCUAAAACAACUCCUGGACUGCAGAUCACGUAUGACUCGGGACAUCUCAGCCACUUGUGUCUGGAGCAACAGAGGAUUGAGCAUCA
B21: chr7:54825262:54825263:-_ENSG00000132432_ENST00000352861|hu_hu|hu_hu_hu_mus_False|78_108 (ssRNA)
RNA: GGGAGUUCUACAGUCCGACGAUCCUGACUUGGCUCAUCCACAAACUGCAUUACCUGCAUGACUGCCGUUGGAUGGCGGAUUGAGAGCGUAGAGACACGUAGCUCAGGAGAGAACCGAGCCCAACGGAACCGGAAGCUGGCAACCAACAGAGGAUUGAGCAUCA
B22: 77200487_77212898_524_3pUTR_ENSG00000127947_ENST00000248594|human|control|control (ssRNA)
RNA: GGGAGUUCUACAGUCCGACGAUCUACAUAUGCUUUUGGCCCAUAGACGCCCUUUAUAAAAUUUGCAUUGAUAUAGUCUGAAUCUUGUGAAGGAGUCUUUAAUGUCAAUUUAACUCGGCUGUGAUCAAAUGGCAGUAUGUCCUUCAACAGAGGAUUGAGCAUCA

Some of the results follow.

Drawing on publication PMC12136788, this text covers binding signal for 22 molecules.

This assay deals with T1, UNK ZnF1-3. As to the kind of experiment: nsRBNS (natural sequence RNA bind-n-seq); RBNS binding buffer (assumed for nsRBNS): 25 mM Tris pH 7.5, 150 mM KCl, 3 mM MgCl2, 0.01% Triton X-100, 500 ug/ml BSA, 20 U/ml SUPERase-In, 4 C; UNK is unkempt and MSI1 is Musashi-1; names of the RNAs are library labels; protein concentration not given here; high values mean tight binding.
In turn, B1 returned a binding signal of 0.56 enrichment R.
Take B2: the binding signal stood at 0.78 enrichment R.
The same measure for B3: 1.08 enrichment R; for B4: 0.541 enrichment R; for B5: 0.987 enrichment R.
Molecule B6 yielded a binding signal of 2.05 enrichment R.
Next, B7: 0.925 enrichment R; B8: 2.71 enrichment R.
Next, B9: 0.828 enrichment R; B10: 1.62 enrichment R; B11: 0.526 enrichment R.
Next, B12: 1.98 enrichment R.
In turn, B13 showed a binding signal of 1.19 enrichment R.
B14 had a binding signal of 0.564 enrichment R.
In turn, B15 yielded a binding signal of 0.763 enrichment R.
Next, B16: 1.34 enrichment R; B17: 0.86 enrichment R; B18: 1.01 enrichment R.
Next, B19: 0.959 enrichment R; B20: 1 enrichment R; B21: 1.4 enrichment R.
The same measure for B22: 1.03 enrichment R.
